In PubChem BioAssay AID651820 (National Center for Advancing Translational Sciences (NCATS), 2012):
Out of some 340,000 compounds screened, about 12,000 (3.5%) were called active. This list was built around the results that the source calls inconclusive (neither active nor inactive); the mix of calls is not that of the screen. The call rests on the fitted dose curve; in most records, active means well fitted inhibition curve with a large enough effect; inconclusive means small, poorly fitted or top-dose-only effect, or another doubt; inactive means no such curve, though single readings can be large or run the other way. No potency is given beside an inconclusive call; the fits are too rough.

Assay: qHTS Assay for Inhibitors of Hepatitis C Virus (HCV)
Settings: Huh7.5.1 HCVcc-Cre (HCVcc is cell-culture hepatitis C virus) infection, luciferase reporter, 44 h; activity change, negative = inhibition: at 41.8 µM (top of the series) unless noted
Procedure, shortened: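 Cells (1,000/well) were plated 4 h before compound, then infected with HCVcc-Cre virus (~0.5 moi). After 44 h further culture, infection was read as luciferase luminescence following a 15 min substrate incubation at room temperature.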
On the % scale 0 is the no-effect control and ±100 the full control effect; potency means the concentration at half of the fitted maximal effect; tags describe the fitted curve by direction and shape.

SMILES | activity change, negative = inhibition | Potency
CCOC(=O)CSc1nc2cc(C(=O)NCc3ccco3)ccc2c(=O)n1-c1ccc(F)cc1 | inactive: 12.9% | 
O=C(NNC(=O)C1CC2CCC1C2)c1sc2ccccc2c1Cl (stereo not given) | inactive: -15.1% | 
CCOc1ccccc1NC(=O)Nc1ccc(Cl)cc1 |  | inconclusive [inhibitor, single point]
Cc1cc(NC(=O)c2cc(CC(C)C)on2)no1 | inactive: 6.92% | 
Cc1cc(C)cc(OCC(O)CN2CCN(Cc3ccc4c(c3)OCO4)CC2)c1 (stereo not given) |  | inconclusive [inhibitor, full curve]
Cc1c(C(=O)N2CCN(c3ccccn3)CC2)sc2ncnc(N3CCN(c4ccccc4)CC3)c12 |  | inconclusive [inhibitor, single point]
COc1ccccc1C(=O)NCCn1ccc2ccccc21 |  | inconclusive [inhibitor, partial curve]
COc1ccc2c(c1)CC/C(=C/c1ccncc1)C2=O |  | inconclusive [inhibitor, full curve]
CCOc1ccc(N(C)S(=O)(=O)c2ccc(C)c(C(=O)NCc3ccccc3OC)c2)cc1 |  | inconclusive [inhibitor, partial curve]
N#C/C(=C\c1cccc(Oc2ccc(C(F)(F)F)cc2[N+](=O)[O-])c1)c1nc2ccccc2[nH]1 | inactive: 5.92% | 
O=C(OCC(=O)N1CCC(c2ccccc2)=N1)c1ccc([N+](=O)[O-])s1 |  | inconclusive [inhibitor, single point]
Cc1cc2c(=O)n(Cc3ccco3)c(SCC(=O)c3ccc(Cl)s3)nc2s1 |  | inconclusive [inhibitor, full curve]
O=C(NC1CCCCC1)[C@@H]1CC=C[C@@H]2CCN(C3CCCCC3)C(=O)[C@@H]21 |  | inconclusive [inhibitor, partial curve]
O=C(NCCc1nc(-c2ccccc2Cl)no1)C1CCCCC1 |  | inconclusive [inhibitor, single point]
CCOc1ccc(NC(=O)N2CCN(C(=O)c3ccco3)CC2)cc1 | inactive: 3.62% | 
Cc1ccccc1NC(=S)N/N=C/c1ccc(O)cc1O | inactive: -24.6% | 
Cc1ccc2nc(NC(=O)CSCc3ccccc3)sc2c1 | inactive: 20.5% | 
CCc1ccc(C2=NN(C(C)=O)C(c3ccco3)C2)cc1 (stereo not given) | inactive: -1.29% | 
C/C(Cn1nc([N+](=O)[O-])cc1C)=N\NC(=O)COc1ccccc1[N+](=O)[O-] | inactive: 0.546% | 
COc1ccccc1/C=C1\SC(=S)N(CCC(=O)Nc2nnc(C)s2)C1=O | inactive: 16% | 
O=c1cc(C2CCCCC2)[nH]c(=O)[nH]1 | inactive: 14.6% | 
O=C(CSC(=S)N1CCCC1)c1cc(Br)cc(Br)c1O |  | active: 12.6 µM
CCOC(=O)c1cc2c3ccccc3n(CC)c2nc1N |  | inconclusive [inhibitor, partial curve]
COc1ccc(C(=O)n2nc(-c3ccco3)nc2SC)cc1OC | inactive: 0.484% | 
O=c1cc(Cl)nc2ccccn12 | inactive: 7.14% | 
Cc1c(Br)cc(C(=O)NC2CCCCC2)c(C)c1C | inactive: 8.8% | 
CC1(C)C2CC=C(/C=N/NC(=S)NCCc3ccccc3)C1C2 (stereo not given) |  | inconclusive [inhibitor, single point]

SMILES | activity change, negative = inhibition | Potency
COc1ccc(S(=O)(=O)N2CCOCC2)cc1NC(=O)CN1C(=O)NC2(CCCCC2C)C1=O (stereo not given) |  | inconclusive [inhibitor, partial curve]
Cc1ccccc1Cn1c(=O)n(Cc2ccco2)c(=O)c2ccccc21 | inactive: 12.7% | 
CC(=O)Nc1ccc(NC(=O)C2CCC(N3C(=O)C4C5C=CC(C6CC56)C4C3=O)CC2)cc1 (stereo not given) |  | inconclusive [inhibitor, single point]
O=C(NCCc1nc(-c2ccccc2)no1)c1ccccc1 | inactive: -7.42% | 
COc1cc(C(=O)ONC(=O)c2ccc(OC(F)F)cc2)cc(OC)c1OC | inactive: -7.92% | 
COc1ccc(CNC(=O)c2ccc(Cn3cc(Cl)cn3)o2)cc1 | inactive: -2.69% | 
O=C(Nc1nc2ccccc2[nH]1)c1ccc(Cl)c(S(=O)(=O)N2CCCC2)c1 |  | active: 22.4 µM
COC(=O)c1ccc(Oc2nc(Nc3ccc(F)cc3)nc(N3CCCC3)n2)cc1 |  | inconclusive [inhibitor, single point]
CC(C)C1Nc2ccc(C(=O)NCc3ccco3)cc2NC1=O (stereo not given) | inactive: 3.78% | 
COc1ccccc1Oc1ccc(NC(=O)c2ccc(Cl)cc2)cc1 |  | active: 2.82 µM
CCCCCCC(=O)Nc1nc(C)c(-c2csc(Nc3cccc(OC)c3)n2)s1 |  | inconclusive [inhibitor, partial curve]
CCOc1ccccc1COC(=O)c1cccc(-n2cnnn2)c1 |  | inconclusive [inhibitor, partial curve]
COc1cc2c(=O)n(CCC(=O)NCC3CCCO3)c(=O)n(CC(=O)Nc3ccc(C)cc3C)c2cc1OC (stereo not given) |  | inconclusive [inhibitor, single point]
Cc1nc(SCC(=O)c2cccc([N+](=O)[O-])c2)n[nH]1 |  | inconclusive [inhibitor, single point]
COc1ccc(C)cc1NC(=O)CSc1nc(SC)ns1 |  | active: 11.2 µM
Cc1ccc(C(=O)NNC(=O)C2CCCN(c3ncccn3)C2)cc1 (stereo not given) | inactive: -13.8% | 
COc1ccc2nc(SC(C(=O)c3ccccc3)c3ccccc3)nc(C)c2c1 (stereo not given) |  | inconclusive [inhibitor, full curve, poor fit]
COC(=O)C1=C(c2ccc3ccccc3c2)C[C@@H]2CC[C@H]1N2C(=O)NCC1CC1 |  | inconclusive [inhibitor, partial curve]
CCc1c(C(=O)NNC(=S)NC2CCCCC2)csc1C |  | inconclusive [inhibitor, partial curve]
COCCCN(C(=O)CCOc1ccccc1C)c1c(N)n(Cc2ccccc2)c(=O)[nH]c1=O | inactive: 13.3% | 
Cc1ccc(C(=O)OCC(=O)NCCc2ccccc2)cc1S(=O)(=O)N1CCOCC1 | inactive: 18.2% | 
O=C(NCCNCCO)C1(C(F)(F)F)C/C(=C\CCO)CCCO1 (stereo not given) | inactive: 29.8% | 
CCC1CCCCN1C(=O)COc1c(Br)cc(Br)c2cccnc12 (stereo not given) |  | inconclusive [inhibitor, partial curve]
Cc1ccc(NC(=O)CC(C)S(=O)(=O)c2ccc3c(c2)NC(=O)CO3)c(Cl)c1 (stereo not given) | inactive: -17.6% | 
Cc1[nH]n(-c2ccccc2)c(=O)c1C(=O)c1ccccc1 | inactive: 1.55% | 
CCn1c(=N)n(CC(=O)c2ccc(Br)s2)c2ccccc21 |  | inconclusive [inhibitor, single point]
O=C(Nc1ccc(S(=O)(=O)N2CCOCC2)cc1)C1CCN(S(=O)(=O)c2ccc(Cl)cc2)CC1 |  | inconclusive [inhibitor, full curve, poor fit]

SMILES | activity change, negative = inhibition | Potency
CCSc1cc(C)nc2c(-c3ccccc3)c(C)nn12 |  | inconclusive [inhibitor, partial curve]
CCN(CC(=O)Nc1ccc(NC(C)=O)cc1)C(=O)CSCC(=O)Nc1ccc(C)cc1 | inactive: 7.82% | 
CC(=O)Nc1sc(N/N=C\c2ccccc2F)nc1-c1cccs1 |  | inconclusive [inhibitor, partial curve]
CCOc1ccc(CSC(=N)N)cc1 |  | inconclusive [inhibitor, single point]
CC(C)c1ccc(CCNC(=O)CCNS(=O)(=O)c2ccc(Br)cc2)cc1 | inactive: -14.2% | 
COC(=O)CCCCCCCC(=O)Nc1nnc(C(F)(F)F)s1 | inactive: -18.6% | 
CCOC(=O)N1CCC(NC(=O)C2CCN(C(=O)c3cc4oc(C)cc4n3Cc3c(F)cccc3Cl)CC2)CC1 | inactive: -17% | 
O=C(NNC(=O)c1cccnc1SCc1cccc([N+](=O)[O-])c1)c1ccc(F)cc1 |  | inconclusive [inhibitor, single point]
COc1cc([N+](=O)[O-])c2nc(C)ccc2c1[N+](=O)[O-] |  | active: 6.31 µM
CC(=O)COc1ccc2c(-c3ccccc3)cc(=O)oc2c1C |  | inconclusive [inhibitor, partial curve]
O=C(CNS(=O)(=O)c1ccc(Br)cc1)N1CCN(c2ccc(F)cc2)CC1 |  | inconclusive [inhibitor, single point]
Cc1ccccc1OCCCn1c(CO)nc2ccccc21 | inactive: 3.38% | 
O=C(CN1CCN(S(=O)(=O)c2ccccc2)CC1)Nc1cccc(C(F)(F)F)c1 |  | inconclusive [inhibitor, single point]
COc1ccc(Cc2ccccc2C(=O)O)cc1 | inactive: 5.15% | 
O=c1oc2ccccc2cc1-c1cn2cccnc2n1 | inactive: -9.11% | 
O=C(NC(=O)c1ccc(Cl)cc1)OC1CCCCC1 | inactive: 17% | 
COc1cc(CN2C(=S)NC(C)(C)CC2(C)O)cc(OC)c1 (stereo not given) | inactive: 9.99% | 
Cc1nc([N+](=O)[O-])cn1CC(=O)c1ccc(OC(F)(F)F)cc1 | inactive: 4.02% | 
CCOc1ccc(N(C(=O)c2cnsn2)C(C(=O)NC2CCCCC2)c2ccncc2)cc1 (stereo not given) | inactive: -3.85% | 
CCOc1cc(C(=S)N2CCCCC2)ccc1OS(=O)(=O)c1ccc(Cl)cc1 |  | inconclusive [inhibitor, single point]
CCCC[n+]1ccn(-c2nc3ccccc3nc2[N-]S(=O)(=O)c2cccs2)c1 | inactive: 17.3% | 
Cc1csc(SC(C)c2nc3scc(-c4ccccc4)c3c(=O)[nH]2)n1 (stereo not given) |  | inconclusive [inhibitor, single point]
CCn1ccc(C(=O)Nc2ccc(Cl)cn2)n1 | inactive: -2.4% | 
COc1ccc(CC(=O)N2CCN(c3ccc(F)cc3)CC2)cc1 | inactive: 0.828% | 
O=C(CN1C(=O)S/C(=C\c2ccccc2F)C1=O)NC1C=CS(=O)(=O)C1 (stereo not given) | inactive: 1.26% | 
CCOC(=O)c1ccc(S(=O)(=O)N2CCN(CC(O)COc3cccc(C(C)=O)c3)CC2)cc1 (stereo not given) | inactive: 14.5% | 
